# Reference: the supplement of paper PMC8728848
# This is one part of the list.
# B1: Epa1-NP-mutant-E227G (Candida glabrata), Q6VBJ0 (protein)
# chain: MILNPALFLNKCVCIYTTLILLLLTNGGYATSSNDISLASKDPTTFPLGCSPDITTPKKGLSMELYSYDFRKKGSYPCWDAAYLDPNYPRTGYKSHRLLAKVDGVTGNINFYYHATKGCTPQLGHLPASYNYPKPLTMTNFTMLLYGYFRPKVTGFHTFTISADDLLFVNFGAGNAFDCCRRDSSADHFGNYQAYAIWGSKTAKDELTVHLDAGVYYPIRLFYNNRGYDGALSFTFKTESNENTVSDFSEYFFSLDDTEEGCPGLISYDSSCASVKTSKIIGIDYHTETPNENLVPITKTIYHLGIPCTGTTTTPLCGSGFYDPLANKCVTINTSSTSSVTKTTSHTTSKEVSFHSSISSQKTLIPKSIPSPYGPIKSQSIPTEMETSSEISSSEYAFSDVISTPSHSPYTKKHSSLNSSSYTSTVIHSLTSYSISQGIFSTSLSEQNITSKSSTDKFSTATSMSNNITQSSIIISQFSTNNENYTTTSMHTSSDKISTETLNNSISTTTSILFSNSSTILKNNTTIISSDKDTHYHPVNPTIVCSTNKTEIICASITQPSISNSNNHWSSSVLKFNSTTVRSTLPSSAGSNETSINVPFSSSTESNTSTSSTSTSNSKMVRSTLPSSAGSNETSISVPFSSSTESNTSTSSTSTSNSKMVRSTLPSSAGSNETSINVPFSSSTESNTSTSSTSTSNSKTVRSTPFSSAGIIMTSLSQRNNKSASSYASSNSKCYNTADSCRKVHSTPSYLLTSSYTSEGVDYDCSLVSTKLKINDTNCVNNKHTTKSCLKTSVTTTIPTLEIKTARKSSSNTIGLHSYPTSSPNKSISSAPIIGYISSFKTIKTASPSYQTSDLTTITTITSLNNPGSTAVENTHESNDKSRKTSSNDISSKHSVIKETKDAVESSNKSHQTNTLKCSSIIIASSSHNSYESLGGTTLTLTLSKVYSPQNNDTLPFLEISEVNPSRTVLPESSKMMQYLTSTEERNKTARNTIATNIVSISTFHFEGEGNAIRMGYTQLLLMLIGIIVMNIGT
# Key:
# Assay in all cases: glycan array binding signal (z-score within array); higher = stronger binding
# Details in all cases: glycan notation: IUPAC condensed, linker removed; mutation: E227G
# [1] = biological target: Gal(b1-3)GlcNAc(b1-2)Man(a1-3)[Gal(b1-3)GlcNAc(b1-2)Man(a1-6)]Man(b1-4)GlcNAc(b1-4)GlcNAc
# Outline: (§1)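 Arrays were curated from the Consortium for Functional Glycomics database, 3228 in total, and kept only where the protein sequence was available. Binding is expressed as a within-array Z-score. This score was averaged across arrays of the same protein sequence at different concentrations or buffers and across linkers, and negative values can be read as non-binding.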
# [2] = biological target: Gal(b1-3)GlcNAc(b1-2)Man(a1-3)[Gal(b1-3)GlcNAc(b1-2)Man(a1-6)]Man(b1-4)GlcNAc(b1-4)[Fuc(a1-6)]GlcNAc
# Outline: as §1
# [3] = biological target: Gal(b1-3)GlcNAc(b1-2)Man(a1-3)[GlcNAc(b1-4)][Gal(b1-3)GlcNAc(b1-2)Man(a1-6)]Man(b1-4)GlcNAc(b1-4)GlcNAc
# Outline: as §1
# [4] = biological target: Gal(b1-3)GlcNAc(b1-2)[Gal(b1-3)GlcNAc(b1-6)]Man(a1-6)[Gal(b1-3)GlcNAc(b1-2)Man(a1-3)]Man(b1-4)GlcNAc(b1-4)GlcNAc
# Outline: as §1
# [5] = biological target: Gal(b1-3)GlcNAc(b1-3)Gal(b1-3)GlcNAc
# Outline: as §1
# [6] = biological target: Gal(b1-3)GlcNAc(b1-3)Gal(b1-4)Glc
# Outline: as §1
# [7] = biological target: Gal(b1-3)GlcNAc(b1-3)Gal(b1-4)GlcNAc
# Outline: as §1
# [8] = biological target: Gal(b1-3)GlcNAc(b1-3)Gal(b1-4)GlcNAc(b1-2)Man(a1-3)[Gal(b1-3)GlcNAc(b1-3)Gal(b1-4)GlcNAc(b1-2)Man(a1-6)]Man(b1-4)GlcNAc(b1-4)GlcNAc
# Outline: as §1
# [9] = biological target: Gal(b1-3)GlcNAc(b1-3)Gal(b1-4)GlcNAc(b1-2)[Gal(b1-3)GlcNAc(b1-3)Gal(b1-4)GlcNAc(b1-6)]Man(a1-6)[Gal(b1-3)GlcNAc(b1-3)Gal(b1-4)GlcNAc(b1-2)Man(a1-3)]Man(b1-4)GlcNAc(b1-4)[Fuc(a1-6)]GlcNAc
# Outline: as §1
# [10] = biological target: Gal(b1-3)GlcNAc(b1-3)Gal(b1-4)GlcNAc(b1-3)Gal(b1-4)GlcNAc(b1-2)[Gal(b1-3)GlcNAc(b1-3)Gal(b1-4)GlcNAc(b1-3)Gal(b1-4)GlcNAc(b1-6)]Man(a1-6)[Gal(b1-3)GlcNAc(b1-3)Gal(b1-4)GlcNAc(b1-3)Gal(b1-4)GlcNAc(b1-2)Man(a1-3)]Man(b1-4)GlcNAc(b1-4)[Fuc(a1-6)]GlcNAc
# Outline: as §1
# [11] = biological target: Gal(b1-3)GlcNAc(b1-3)Gal(b1-4)GlcNAc(b1-6)[Gal(b1-3)GlcNAc(b1-3)]Gal(b1-4)Glc
# Outline: as §1
# [12] = biological target: Gal(b1-3)GlcNAc(b1-3)Gal(b1-4)[Fuc(a1-3)]GlcNAc
# Outline: as §1
# [13] = biological target: Gal(b1-3)GlcNAc(b1-3)Gal(b1-4)[Fuc(a1-3)]GlcNAc(b1-6)[Gal(b1-3)GlcNAc(b1-3)]Gal(b1-4)Glc
# Outline: as §1
# [14] = biological target: Gal(b1-3)GlcNAc(b1-3)GalNAc
# Outline: as §1
# [15] = biological target: Gal(b1-3)GlcNAc(b1-6)Gal(b1-4)GlcNAc
# Outline: as §1
# [16] = biological target: Gal(b1-3)GlcNAc(b1-6)GalNAc
# Outline: as §1
# [17] = biological target: Gal(b1-3)GlcNAc(b1-6)[Gal(b1-3)]GalNAc
# Outline: as §1
# Gal(b1-3)GlcNAc6S = biological target: Gal(b1-3)GlcNAc6S
# Outline: as §1
# [18] = biological target: Gal(b1-3)[Fuc(a1-4)]GlcNAc
# Outline: as §1
# [19] = biological target: Gal(b1-3)[Fuc(a1-4)]GlcNAc(b1-2)Man
# Outline: as §1
# [20] = biological target: Gal(b1-3)[Fuc(a1-4)]GlcNAc(b1-2)Man(a1-3)[Gal(b1-3)[Fuc(a1-4)]GlcNAc(b1-2)Man(a1-6)]Man(b1-4)GlcNAc(b1-4)[Fuc(a1-6)]GlcNAc
# Outline: as §1
# [21] = biological target: Gal(b1-3)[Fuc(a1-4)]GlcNAc(b1-3)Gal(b1-3)[Fuc(a1-4)]GlcNAc
# Outline: as §1
# [22] = biological target: Gal(b1-3)[Fuc(a1-4)]GlcNAc(b1-3)Gal(b1-4)[Fuc(a1-3)]GlcNAc
# Outline: as §1
# [23] = biological target: Gal(b1-3)[Fuc(a1-4)]GlcNAc(b1-6)GalNAc
# Outline: as §1
# [24] = biological target: Gal(b1-3)[GlcNAc(b1-6)]GalNAc
# Outline: as §1
# [25] = biological target: Gal(b1-3)[Neu5Ac(a2-6)]GalNAc
# Outline: as §1
# [26] = biological target: Gal(b1-3)[Neu5Ac(a2-6)]GlcNAc(b1-4)Gal(b1-4)Glc
# Outline: as §1
# [27] = biological target: Gal(b1-3)[Neu5Ac(b2-6)]GalNAc
# Outline: as §1
# Gal(b1-4)Gal = biological target: Gal(b1-4)Gal
# Outline: as §1
# [28] = biological target: Gal(b1-4)GalNAc(a1-3)[Fuc(a1-2)]Gal(b1-4)GlcNAc
# Outline: as §1
binder,measurement,setting,value
B1,glycan array binding signal (z-score),[1],1.06
same,glycan array binding signal (z-score),[2],-0.114
same,glycan array binding signal (z-score),[3],-0.01
same,glycan array binding signal (z-score),[4],-0.08
same,glycan array binding signal (z-score),[5],-0.112
same,glycan array binding signal (z-score),[6],0.018
same,glycan array binding signal (z-score),[7],-0.173
same,glycan array binding signal (z-score),[8],0.08
same,glycan array binding signal (z-score),[9],0.017
same,glycan array binding signal (z-score),[10],0.069
same,glycan array binding signal (z-score),[11],0.421
same,glycan array binding signal (z-score),[12],-0.247
same,glycan array binding signal (z-score),[13],-0.074
same,glycan array binding signal (z-score),[14],-0.236
same,glycan array binding signal (z-score),[15],4.84
same,glycan array binding signal (z-score),[16],-0.149
same,glycan array binding signal (z-score),[17],0.096
same,glycan array binding signal (z-score),Gal(b1-3)GlcNAc6S,2.52
same,glycan array binding signal (z-score),[18],-0.184
same,glycan array binding signal (z-score),[19],0.106
same,glycan array binding signal (z-score),[20],-0.197
same,glycan array binding signal (z-score),[21],-0.323
same,glycan array binding signal (z-score),[22],-0.141
same,glycan array binding signal (z-score),[23],-0.108
same,glycan array binding signal (z-score),[24],0.609
same,glycan array binding signal (z-score),[25],1.35
same,glycan array binding signal (z-score),[26],-0.257
same,glycan array binding signal (z-score),[27],0.131
same,glycan array binding signal (z-score),Gal(b1-4)Gal,-0.248
same,glycan array binding signal (z-score),[28],-0.119
